Experimental data published in the supplement of paper PMC11417369.
± gives the standard deviation of the averaged measurements. This is one part of the list.

Each sequence was assayed on PfAP2-LT AP2 domain (GST-tagged) (assay: gcPBM binding intensity (ln(normalized median fluorescence intensity)); higher = stronger DNA binding).
Outline: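 Plasmodium falciparum DNA-binding domains carrying a GST tag were expressed in E. coli and applied for 1 h, at about 25 μg on average, to an Agilent 4 × 180k array. The array held primer-extended double-stranded 36-bp intergenic genomic probes together with negative controls, and binding took place in 1× PBS with 1% milk, 0.2 mg/ml BSA, 0.5% salmon testes DNA and 0.03% Triton X-100. An Alexa488 anti-GST antibody detected bound protein, and the array was scanned at 488 nm. Binding intensity is taken as the highest Masliner-normalised natural-log median intensity across replicate spots of either probe orientation.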

Sequence	gcPBM binding intensity (ln)
ATACATATATAAATACGTACATATATAATTATATAT [XGTACX_site8178]	9.01 ± 0.41
AAATGAGAAGAAATACGTACATATAATAAAATAATT [XGTACX_site4439]	9.04 ± 0.46
CATGTAATATTAAACACACACTCATATAACTCAATA [CACACA_site4212]	9.13 ± 0.33
CACATATACTTCTGTGCACACGAATATTTTTCTTCT [CACACA_site1408]	9.33 ± 0.45
AAAATATAATATAATGCACACATAAACAAAAAAAAA [CACACA_site8161]	9.18 ± 0.59
TTTTTTTTTTTTTTGGGTACATAATAATAACAAGTG [XGTACX_site1034]	8.29 ± 0.31
TTTTATTTAACTCATAATTTTTTAAAAAACAATTAT [XGTACX_negctrl_site19]	8.3 ± 0.53
CATACAGTATTATACTGTACCCATACAAAAAAATAT [XGTACX_site6130]	8.83 ± 0.48
AAATAAAAAAAATTTGCACACCTTCAAAGTAATATA [CACACA_site1583]	8.77 ± 0.39
TTTTTAATATTCTATGCATGCATCGCATATTTGGTT [TGCATGCA_site1004]	8.98 ± 0.51
CTTATTTAAGAGTATGAACACACATCATACACATAT [CACACA_site9205]	9.07 ± 0.34
TTAACATTATATGAAGGTACAGAAAAAAAAAAATTA [XGTACX_site8530]	8.46 ± 0.54
TTTCTTATAGATTTTAATCCTCTATCAAAAAAAGAA [GTGCAC_negctrl_site162]	7.88 ± 0.38
GTGTGCTTTTTACGAGTGCAAGTATTTTGGTGGTTA [GTGCAC_site9496]	9.04 ± 0.47
GTACACATATAATATACACACAACAAATATGCACAT [CACACA_site1010]	9.5 ± 0.3
TAATTTTTATTTATAATAATATATGACATATATCCA [XGTACX_negctrl_site359]	8.52 ± 0.45
GGAATAATATAAAACACACACATAAATATAAATATA [CACACA_site3376]	9.45 ± 0.35
TAATTTTTTTTTTTTTTTTTTTTTTTTTTTTTCCTT [CACACA_negctrl_site1095]	8.11 ± 0.6
TTAAGAATATCTACATGTACATACCAAAGAAATACA [XGTACX_site3125]	8.71 ± 0.4

Sequence	gcPBM binding intensity (ln)
TTTTATTCCTATTTATTTATATTTTTGTCTTATATC [CACACA_negctrl_site125]	8.88 ± 0.54
ATGAACAAAATGTAATGTACGAATAATTATTCATAT [XGTACX_site4812]	8.98 ± 0.43
TATAGACAAACACATACATGCATACATACATACATA [TGCATGCA_site273]	9.22 ± 0.33
AAAAAAAAGTTCTACACACACAAAAAAATATTTTTT [CACACA_site2309]	9.17 ± 0.38
AATGACCATTTTTAAAATTACAAATACATACAACTG [TGCATGCA_negctrl_site420]	8.56 ± 0.41
AATGTCAATTTTAATAGTACACAAATATATATATAT [XGTACX_site521]	8.98 ± 0.18
AAGTATTATTATAAGACACACATGTATTTAAGTATA [CACACA_site4922]	9.01 ± 0.5
TTATAATAAGATTGTTGTACTTATATTCCTTCTATA [XGTACX_site3173]	8.74 ± 0.47
AATACATATTCAAAGGTGCAAAATAAAAATATACAT [GTGCAC_site9743]	9.19 ± 0.46
TAGTTATAAGAGTTACAAAGAATACCGGAAATATAG [CACACA_negctrl_site1829]	8.84 ± 0.43
TGTTTTGTATATATAGCATGCAGTAAGGGAAAAAAA [TGCATGCA_site652]	8.76 ± 0.38
TCGTTTCATATTTATCATGAGATAATCACACGAACA [TGCATGCA_negctrl_site497]	8.7 ± 0.38
CTCCATATGAAACACACACACAAATGAAAAAAATAT [CACACA_site3018]	9.82 ± 0.4
TTTAAAAAAATATATACACACATATATATATATATA [CACACA_site617]	9.48 ± 0.25
AATTAACAAAGACACACACACACACGCACAAAAAAA [CACACA_site6388]	10.2
ATAGAAATAAAATAAAATAAAAAAAAAATAATGAAA [CACACA_negctrl_site1565]	8.64 ± 0.44
ATATATAATAAATACACACACATGTATTTATAAATA [CACACA_site5135]	9.12 ± 0.37
TGAATTATAAATTATAGTACTTTATAATATGAACAT [XGTACX_site2317]	8.46 ± 0.45
TCTGTGCACGCATGAAGTACAAAAAAGGTTTCCAGT [XGTACX_site5049]	9.11 ± 0.47

Sequence	gcPBM binding intensity (ln)
TATATTTTTTTAATATGTACATATATATATAAAACA [XGTACX_site2171]	8.3 ± 0.44
CTATATACTAAATGCACACTTATATATTTATATATA [CACACA_site2454]	8.77 ± 0.42
CATATATATATATATTGTACAAGATTGTTTTTTTAT [XGTACX_site3913]	8.79 ± 0.3
ATGATCATAAGACACACACACAAAAAAAAAAAAAAA [CACACA_site6936]	9.38 ± 0.64
ATTTAAATAATATGTACACACATTTAAAAAATTATA [CACACA_site2816]	8.76 ± 0.44
TAAGAAAAAGGCACACGTACATAATTCAAAATAAAT [XGTACX_site982]	9.12 ± 0.5
ATATATATGTATGTATGTACTTATTTATTTATTTAT [XGTACX_site7740]	8.81 ± 0.45
CCAATGAGGATATATACACACATACATTAAAAAAAT [CACACA_site5090]	9.17 ± 0.48
TTTTTTTTCACACATTGTACTTTTTTATAAAATATA [XGTACX_site4351]	8.71 ± 0.42
AATATATAGGTATTTACACACAATGTGAGATCTATA [CACACA_site3407]	9.03 ± 0.31
ATTTATGAAAAGTAAAGTACACACAGGAAAAAAAAA [XGTACX_site3564]	9.1 ± 0.54
GTCAACTTGTGATAAGTGCATATATATAATAAAATG	8.86 ± 0.44
AAAAAAATATAATATTTGAATAAATATAATAATATG [XGTACX_negctrl_site477]	8.4 ± 0.57
CGAAATAAATCTTATGCACACAAATAATTAATTAAA [CACACA_site8491]	8.88 ± 0.4
AATTATCAAAGTCTATACATACATACATACATACAT [GTGCAC_negctrl_site243]	9.09 ± 0.33
TAATTATAATAAAAAGGTACAGAAAAGTTATACTCA [XGTACX_site6111]	8.64 ± 0.52
GTTATAACTCAAATATGTACATATTATAAAACATAT [XGTACX_site6693]	8.77 ± 0.3
TTATAGAACTATATTGCACACATAATATATATATAT [CACACA_site9042]	9.07 ± 0.35
